Consider 45 sequences from the supplement of paper PMC11417369.

The list shows a part of the results.

In the experiment the test system is PfSIP2 AP2 domain 1 (GST-tagged). The experiment can be described thus: gcPBM binding intensity (ln(normalized median fluorescence intensity)); higher = stronger DNA binding. The essentials: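 Using an Agilent 4 × 180k array, primer-extended double-stranded 36-bp intergenic genomic probes and negative controls were exposed for 1 h to GST-fused P. falciparum DNA-binding domains expressed in E. coli. Binding was carried out in 1× PBS with 1% milk, 0.2 mg/ml BSA, 0.5% salmon testes DNA and 0.03% Triton X-100, and protein was detected with Alexa488 anti-GST antibody and a 488 nm scan. Binding intensity is the highest Masliner-normalised natural-log median intensity across replicate spots of either probe orientation.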
Consider “GGGAAGTAGTAGTAATGTACTTATTTATTATGTGAC [XGTACX_site3985]”, for which the “gcPBM binding intensity (ln)” value was found to be 7.35.
In the case of “TATAAATATAAATACACACACATATATATTATATAT [CACACA_site4496]”, the “gcPBM binding intensity (ln)” value turned out to be 7.07.
In the case of “TATATATATATATGTTGTACATATTTAAATGTTTAT [XGTACX_site5437]”, the “gcPBM binding intensity (ln)” value turned out to be 9.84.
Under “ATATATATATATATGTGTACATAATAACTTTGCTTA [XGTACX_site1255]” stands 9.45.
As for “ACCTATTTCAAACACACACACACACTAGCAAACATA [CACACA_site4695]”, the “gcPBM binding intensity (ln)” value is 7.67.
Regarding “TAAAAAATGTTATATACACACAGTATAAAAAAAAAT [CACACA_site7808]”, the “gcPBM binding intensity (ln)” value came out at 6.9.
On to “AATTAAATTATAAGCACACACATATATATATATATA [CACACA_site3351]”, for which the “gcPBM binding intensity (ln)” value is 9.36.
In the case of “CCACGTATAATATGTACACACACATAAATACAAAAA [CACACA_site4660]”, the “gcPBM binding intensity (ln)” value was found to be 7.61.
In the case of “ATCTGTCGACAGGACAGTACACAGTAGCCAGGAAAT [XGTACX_site1994]” it was 7.05; in that of “TATATATATATATATATATATATGTATGTGCATTTA [TGCATGCA_negctrl_site53]”, 9.08; in that of “ATATAAAAATGTAAGGGTACATAATAAATAATCAAA [XGTACX_site5217]”, 7.07.
In the case of “ATTTAGAAAAATAAAACACACATATATATGTAAATA [CACACA_site4113]” it was 6.85; in that of “GGAAAAAATATATGCACACCCCCCAAAAAAAAAAAA [CACACA_site2222]”, 9.73.
As for “AAAAAATATTAATATAGTACTTTATATTTATAAGTA [XGTACX_site6895]”, the “gcPBM binding intensity (ln)” value was 6.89.
Regarding TTTTTGTTATTTTTAGTGCACATTTAAGGGTGTATT, the “gcPBM binding intensity (ln)” value was found to be 10.4.
For “GAAGGAAAAACAGAATGTACATAAATAAACGTATAT [XGTACX_site753]”, the “gcPBM binding intensity (ln)” value came out at 7.17.
Under “ACAAAATTTACAAAATGTACAAAATTTACAAAATGT [XGTACX_site6464]” stands 6.84; under “TATATCTTACTTTTTGCACACACTAATATTATTGTT [CACACA_site1640]”, 7.42.
Take “AATACGGCAAACATTAAAAAATATAATAACAATAAA [CACACA_negctrl_site868]”: the “gcPBM binding intensity (ln)” value was 6.96.
On to “TAAGGATGAATCCTTTGTACATATATATATATATAT [XGTACX_site1242]”, for which the “gcPBM binding intensity (ln)” value was found to be 9.76.
As for “TTTTTTTAAATATACACACACATTTATACATATATA [CACACA_site3400]”, the “gcPBM binding intensity (ln)” value stood at 7.16.
Under “GTTATACATTTTGATTGTACATAAACCATTTGAGCA [XGTACX_site7283]” stands 7.07; under “TGAAAAGAAAACACATGTACAAATATATAAATATAA [XGTACX_site6098]”, 6.76; under “TATAAACATATCATATGTACATATATTTTTATAAAA [XGTACX_site8882]”, 6.98.
Consider ATATATTTTTGTAGTGTGCACGTTTATATGGTGAAA, for which the “gcPBM binding intensity (ln)” value came out at 10.3.
With “TTTAACGTTGAATATACACACATATATATATATATA [CACACA_site3698]”, the “gcPBM binding intensity (ln)” value was 9.45.
In the case of “AAGAAAAAATAAAAAATAAAAATAAAAAATAAAAAA [TGCATGCA_negctrl_site274]” it was 6.66.
With “ATATATTTACATATTACACACAATATTGTACACATA [CACACA_site6564]”, the “gcPBM binding intensity (ln)” value was found to be 7.06.
For “TTAGAGAAACAAAATTGTACATTATAAATTTGCCTT [XGTACX_site440]”, the “gcPBM binding intensity (ln)” value turned out to be 6.76.
Consider “CAAGAAATTTACAAACGTACATATGTTCATACAAGG [XGTACX_site2372]”, for which the “gcPBM binding intensity (ln)” value came out at 6.96.
In the case of “TATTTGAAAGCCAATTGTACTTTAGTTTTTGAAACA [XGTACX_site5542]”, the “gcPBM binding intensity (ln)” value turned out to be 6.96.
Turning to “CTATTTCAGAAACACACACACACAAACAAACATATA [CACACA_site978]”, the “gcPBM binding intensity (ln)” value was 7.17.
In the case of TTTCTTTTTAAATAGGTGCATATTTTTATAAATATA it was 11; in that of “TTAAATATAATATTATGTACTAAATATTTTTTTATT [XGTACX_site6121]”, 6.87.
In the case of “TTTATATATATTCTCACACACTTTTTATTTTAACAA [CACACA_site4534]” it was 7.05.
In the case of “ATAAATTTCCTCGTTTTTTTTTTTTTTTTTTTTTTT [CACACA_negctrl_site1173]”, the “gcPBM binding intensity (ln)” value was 8.43.
“AAAAATATTTATAACACACACATAATATTTATATAT [CACACA_site7238]”: the “gcPBM binding intensity (ln)” value is 7.09.
Turning to “AGATGATATACGTAAACACACAAATAAAAAAAATTT [CACACA_site3327]”, the “gcPBM binding intensity (ln)” value is 7.06.
Take “ACAAAAAAATAAGGTGCACACAAAAAAAAAAAAAAA [CACACA_site8171]”: the “gcPBM binding intensity (ln)” value is 12.
Take “GAGTTCAGTTTTTGTTGTACTTATTCTTAATATGTC [XGTACX_site6083]”: the “gcPBM binding intensity (ln)” value was 7.15.
Consider “TTTTTTTTTTTTTGATGTACTTATTTAATAAGATAT [XGTACX_site376]”, for which the “gcPBM binding intensity (ln)” value was found to be 6.9.
Under “TATATGGCATATTTCACACACACATAATGAATATTA [CACACA_site9181]” stands 6.97; under “ATATAGCATATAATTTGTACACAGGCCATACCTGAA [XGTACX_site533]”, 6.85; under “ATCCAAAAAATTAATGCATGCGCAAAAAATAGCTTA [TGCATGCA_site615]”, 6.67.
Take “AAAAAAAAAACATACACACACATATATATATATATG [CACACA_site1586]”: the “gcPBM binding intensity (ln)” value was determined as 7.65.
